Data as given in publication PMC12728655, “Engineering an Artificial Myxopyronin Derivative with Enhanced Metabolic Stability via Mutasynthesis” (JACS Au, 2025).
≈ marks a conversion by molar mass, not a printed value.

Columns and labels:
Assay in all cases: microbe, parasite or virus in culture
wt-E. coli BW25113 = settings: Escherichia coli
V^R-E. faecium DSM-17050 = settings: Enterococcus faecium, DSM17050
E. faecium DSM-20477 = settings: Enterococcus faecium, DSM20477

Structure (SMILES) | MIC (wt-E. coli BW25113) [µg/mL] | MIC (V^R-E. faecium DSM-17050) [µg/mL] | MIC (E. faecium DSM-20477) [µg/mL]
CO[C@H]1/C=C/O[C@@]2(C)Oc3c(C)c(O)c4c(O)c(c(/C=N/N5CCN(C)CC5)c(O)c4c3C2=O)NC(=O)/C(C)=C\C=C\[C@H](C)[C@H](O)[C@@H](C)[C@@H](O)[C@@H](C)[C@H](OC(C)=O)[C@@H]1C [rifampin] | 16 (≈ 19.4 µM) | 0.03 (≈ 0.0365 µM) | 8 to 16 (≈ 9.72 to 19.4 µM)
CCC/C(C)=C/C=C(\C)C(=O)c1c(O)cc([C@H](C)CC/C=C/NC(=O)OC)oc1=O [MYX A (1), myxopyronins A] | > 64 | > 64 | > 64
COC(=O)N/C=C/CC[C@@H](C)c1cc(O)c(C(=O)/C(C)=C/C=C(\C)CCC(F)(F)F)c(=O)o1 [MYX (8)] | > 64 | > 64 | > 64
